Experiments:
[1] = molecular target: Trp535Ala RT RNase H (Human immunodeficiency virus type 1 group M subtype B, UniProt P03366, W1134A); experiment: biochemical
Experimental: (§1) HIV RT-associated RNase H activity was measured as described in 100 µL reaction volume containing 50 mM Tris-HCl buffer pH 7.8, 6 mM MgCl2, 1 mM dithiothreitol (DTT), 80 mM KCl, 0.25 µM hybrid RNA/DNA 5′-[…] -Fluorescin-3′ (HPLC, dry, QC: Mass Check) (available from Metabion International AG, Planegg/Steinkirchen, Germany) 5′-Dabcyl-[…] -3′ (HPLC, dry, QC: Mass Check) and 20 ng of wt RT or 700ng of Trp535Ala RT according to a linear range of dose-response curve.

[2] = system: Trp535Ala RT RNase H; experiment: biochemical; details: Trp535Ala mutant vs wt RNase H
Experimental: as §1

## Cc1cc(-c2ccccc2)n2nc(C(=O)Nc3ccc(O)c(O)c3)nc2n1 [Compound 18g, N-(3,4-Dihydroxyphenyl)-5-methyl-7-phenyl-[1,2,4]triazolo[1,5-a]pyrimidine-2-carboxamide]
[1]
  IC50: > 100 µM
[2]
  reduction of inhibitory potency, fold of difference: > 244 fold
